Key:
[1] = biological target: T1, Claudin 18.2 on CHO cells (CHO+ Claudin 18.2) (UniProt P56856-2 1-261); assay: flow cytometry on Claudin 18.2-expressing CHO cells (summary table)
T1 construct: whole, on cells; also called CHO_18.2
T1 sequence (looked up): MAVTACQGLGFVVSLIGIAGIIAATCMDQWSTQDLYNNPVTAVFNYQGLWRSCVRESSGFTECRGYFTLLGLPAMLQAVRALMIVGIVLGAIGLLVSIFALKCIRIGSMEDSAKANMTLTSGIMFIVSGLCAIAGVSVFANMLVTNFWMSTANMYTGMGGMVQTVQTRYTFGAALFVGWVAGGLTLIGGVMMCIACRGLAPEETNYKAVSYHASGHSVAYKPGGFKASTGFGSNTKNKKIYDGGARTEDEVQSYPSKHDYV

CD3 on Jurkat cells = biological target: T2, CD3 on Jurkat cells; assay: flow cytometry on Jurkat cells, CD3 binding (T cell) (summary table)
T2 construct: whole, on cells; also called CD3+ Jurkat cells

[2] = biological target: T3, full-length human Claudin 18.2 on MIA PaCa-2 cells (MIA PaCa-2+ Claudin 18.2) (human, UniProt P56856-2 1-261); assay: cell-based or functional assay
T3 sequence (looked up): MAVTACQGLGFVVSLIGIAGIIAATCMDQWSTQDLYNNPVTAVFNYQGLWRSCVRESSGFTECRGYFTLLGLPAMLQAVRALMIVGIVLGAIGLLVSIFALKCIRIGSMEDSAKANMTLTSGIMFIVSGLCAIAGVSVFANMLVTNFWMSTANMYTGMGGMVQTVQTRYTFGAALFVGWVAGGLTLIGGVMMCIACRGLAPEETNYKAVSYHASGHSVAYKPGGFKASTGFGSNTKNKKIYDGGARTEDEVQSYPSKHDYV

T2 sequence (P07766 23-207, chain 1 of 3): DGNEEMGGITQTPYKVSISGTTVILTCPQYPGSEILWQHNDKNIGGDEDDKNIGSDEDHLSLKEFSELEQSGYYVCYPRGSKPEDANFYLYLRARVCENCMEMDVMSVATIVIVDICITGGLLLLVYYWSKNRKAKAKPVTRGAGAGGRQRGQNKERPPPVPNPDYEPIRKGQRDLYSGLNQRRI
T2 sequence (P09693 23-182, chain 2 of 3, further chain): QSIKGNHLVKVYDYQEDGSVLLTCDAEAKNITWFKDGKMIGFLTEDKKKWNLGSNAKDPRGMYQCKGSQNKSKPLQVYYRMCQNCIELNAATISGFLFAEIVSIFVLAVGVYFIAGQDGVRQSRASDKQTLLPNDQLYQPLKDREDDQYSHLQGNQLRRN
T2 sequence (P04234 22-171, chain 3 of 3, further chain): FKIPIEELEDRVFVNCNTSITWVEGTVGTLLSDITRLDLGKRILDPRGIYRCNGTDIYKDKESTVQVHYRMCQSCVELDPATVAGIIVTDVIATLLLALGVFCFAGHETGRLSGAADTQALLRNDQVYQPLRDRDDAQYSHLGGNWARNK

EC50 [1]: 0.015 µg/mL | EC50 (CD3 on Jurkat cells): 37 µg/mL | T cell activation EC50 (CD69-positive cells) [2]: 0.0236 µg/mL
B1: Clnd18.2-1A11/3C2FC/CD3(up) TsAb (TriSpecific-V1 structure) (other)
chain: QVQLVESGGGLVQPGGSLRLSCAASGFTFSNYAMYWVRQAPGKGPEWVSVISGGGGVISYADSVKGRFTISRDNAKNTMYLQMNSLKPEDTAVYYCNAQSAVWWENDYWGQGTQVTVSSGGGGSGGGGSGGGGSQVQLVESGGGLVQAGGSLRLSCAASGLTFSLYDMGWFRQAPGKEREWVATITSSGNTGYAESVKGRFTVSRDNGKKTGYLQTNNLKPEDTALYYCYVPFLGRGYGTLVTVSS[human IgG1 Fc with S354Y T366Y (EU numbers) not written out]
heavy: EVQLQESGAELARPGASVKMSCKASGYTFTSYTMHWVKQRPGEGLEWIGYINPSSGYTKYNQKFKDKATLTADKSSSTAYMELSSLTSEDSAVYYCARWQDYDVYFDYWGEGTTLTVSSASTKGPSVFPLAPSSKSTSGGTAALGCLVKDYFPEPVTVSWNSGALTSGVHTFPAVLQSSGLYSLSSVVTVPSSSLGTQTYICNVNHKPSNTKVDKKV[human IgG1 Fc with Q347E Y407T (EU numbers) not written out]
light: QIVLSQSPAILSASPGEKVTMTCRASSSVSYIHWFQQKPGSSPKPWIYATSNLASGVPVRFSGSGSGTSYSLTISRVEAEDAATYYCQQWTSNPPTFGGGTKLEIKRTVAAPSVFIFPPSDEQLKSGTASVVCLLNNFYPREAKVQWKVDNALQSGNSQESVTEQDSKDSTYSLSSTLTLSKADYEKHKVYACEVTHQGLSSPVTKSFNRGEC
